Experimental data taken from PubChem BioAssay AID1347043 (National Center for Advancing Translational Sciences (NCATS), 2019).
Hit rate of the full screen: of about 76,000 compounds, about 1,900 (2.5%) were called active. Inconclusive results, whose numbers are uncertain, are shown with a selection of clear calls. Calls follow the shape of the dose curve; as a rule, active = well fitted inhibition curve with a large enough effect; inconclusive = small, poorly fitted or top-dose-only effect; inactive = flat fitted curve, though single readings scatter. Potencies of inconclusive entries are doubtful fits and often do not repeat.

Each compound was assayed against Luciferin 4-monooxygenase (Photinus pyralis) (UniProt P08659) (assay: Firefly luciferase inhibition profiling of diverse chemical library using quantitative high-throughput screening). Conditions: purified P. pyralis luciferase, luminescence, biochemical; activity change, negative = inhibition: at 115 µM (top of the series) unless noted.
UniProt P08659, sequence (P08659 whole entry, looked up): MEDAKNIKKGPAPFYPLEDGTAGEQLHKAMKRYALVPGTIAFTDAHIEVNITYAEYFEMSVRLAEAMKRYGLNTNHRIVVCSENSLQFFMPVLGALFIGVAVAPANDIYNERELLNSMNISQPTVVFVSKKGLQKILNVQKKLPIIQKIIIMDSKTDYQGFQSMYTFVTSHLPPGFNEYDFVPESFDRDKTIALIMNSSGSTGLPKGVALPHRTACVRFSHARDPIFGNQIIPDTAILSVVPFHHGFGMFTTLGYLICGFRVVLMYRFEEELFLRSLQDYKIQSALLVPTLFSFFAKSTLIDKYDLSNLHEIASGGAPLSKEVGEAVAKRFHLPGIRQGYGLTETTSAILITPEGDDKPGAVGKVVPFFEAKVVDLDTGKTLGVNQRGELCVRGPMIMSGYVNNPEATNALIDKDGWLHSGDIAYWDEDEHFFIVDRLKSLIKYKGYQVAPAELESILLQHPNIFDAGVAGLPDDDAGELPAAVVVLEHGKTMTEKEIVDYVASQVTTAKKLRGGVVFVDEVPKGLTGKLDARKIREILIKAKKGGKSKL
Summary of the method: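 Luminescence read by CCD imager after adding enzyme (10nM final) to wells holding compound, titrated in qHTS. Substrates 10uM each D-luciferin and ATP; buffer 50mM Tris acetate pH 7.5, 10mM Mg acetate, Tween-20, BSA.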
% is scaled to controls: 0 for no effect and ±100 for the full control effect; potency is read from the fitted curve at half-maximal effect; tags tell the direction and shape of the fitted curve.
Also: nearly all actives have a fitted effect of over 65% in size.

Row | Compound | activity change, negative = inhibition | Potency
1 | CCOC(=O)C1=CN(CC(=O)Nc2ccc(C)c(C)c2)S(=O)(=O)N=C1C | inactive: -8.47% | –
2 | COc1ccc2cc(-c3[nH]ncc3CN3CCN(c4cccc(C)n4)CC3)ccc2c1 | – | inconclusive: 44.7 µM [inhibitor, partial curve]
3 | COc1ccc(C(=O)N2CCN(c3cc(C(F)(F)F)ncn3)CC2)cc1F | inactive: -5.56% | –
4 | Cc1ccc(-c2cc3c(=O)n(CCNC(=O)c4ccc5c(c4)OCO5)ccn3n2)c(C)c1 | – | inconclusive: 0.562 µM [inhibitor, full curve, poor fit]
5 | COc1ccccc1CN1CCc2nc(C(=O)Nc3ccccc3)oc2CC1 | – | active: 4.47 µM
6 | CO[C@H]1C(=O)N(C(C)C)[C@H]1C1CCN(C(=O)Cn2ccc(C)n2)CC1 | – | active: 25.1 µM
7 | CC(C)N1C(=O)C(CC(=O)NCC2CCN(Cc3cccc(F)c3)CC2)=C2CCCCC21 (stereo not drawn) | inactive: 0% | –
8 | O=c1c2nc(Nc3ccccc3)ccc2ncn1-c1ccccc1 | – | inconclusive: 126 µM [inhibitor, single point]
9 | CN(Cc1ccccc1)C(=O)c1noc(-c2ccc(F)cc2)n1 | – | inconclusive: 39.8 µM [inhibitor, partial curve]
10 | COc1ccc(NC(=O)c2ccc3c(c2)N(C)C2CCCCN2C3=O)cc1F (stereo not drawn) | – | inconclusive: 50.1 µM [inhibitor, partial curve]
11 | COc1cccc(CNC(=O)C2CCN(C(=O)c3ncn4c3COC(c3ccc(C)cc3)C4)CC2)c1 (stereo not drawn) | – | inconclusive: 44.7 µM [inhibitor, partial curve]
12 | Cc1ccc(S(=O)(=O)NC[C@H]2O[C@H](Cc3cc(COc4ccccc4)on3)CC[C@@H]2O)cc1 | inactive: -6.67% | –
13 | Cc1ccc(C2Cn3nnc(C(=O)N4CCC(C(=O)NCc5cccc(C)c5)CC4)c3CO2)cc1 (stereo not drawn) | – | inconclusive: 44.7 µM [inhibitor, partial curve]
14 | COc1ccc(-c2nc3cc(C)ccc3cc2CN2CCN(C)C(=O)C2)cc1OC | inactive: 10.3% | –
15 | Cc1ccc(C2=NC3(CCN(C(=O)c4ccccc4Cl)CC3)ON2)cc1 | – | active: 31.6 µM
16 | Cc1cc(=O)n(CC(=O)Nc2ccc(Br)cc2F)c(N2CCc3ccccc3C2)n1 | inactive: 2.43% | –
17 | COc1ccc(-c2cc(N3CCCC(NC(=O)c4cc(C)cc(C)c4)C3)n[nH]2)cc1 (stereo not drawn) | – | inconclusive: 3.98 µM [inhibitor, full curve]
18 | CCCS(=O)(=O)N[C@H]1C[C@@H](c2nc(-c3ccc4c(c3)OCO4)no2)N(C)C1 | – | active: 44.7 µM
19 | CCc1nc2c(c(-c3ccc(Cl)cc3)n1)CCN(Cc1ccc(N(C)C)cc1)CC2 | inactive: 1.51% | –
20 | Cc1ncccc1Oc1ncnc(N2CCCCC(N)C2)c1C (stereo not drawn) | inactive: 7.84% | –
21 | COc1ccc(OC)c(NC(=O)c2ccc3c(c2)N(S(=O)(=O)c2ccccc2)CC3)c1 | – | inconclusive: 100 µM [inhibitor, single point]
22 | COc1ccc(-c2cc(C[C@@H]3CC[C@H](O)[C@@H](CNCc4cccc(OC)c4)O3)no2)cc1 | – | inconclusive: 89.1 µM [inhibitor, partial curve, poor fit]
23 | C=CCOc1cccc(-c2nc(C(=O)N(C)Cc3ccco3)cs2)c1 | – | inconclusive: 56.2 µM [inhibitor, partial curve]

Row | Compound | activity change, negative = inhibition | Potency
24 | COc1ccccc1-c1nc2nccc(-c3cccnc3)n2n1 | – | inconclusive: 44.7 µM [inhibitor, partial curve, poor fit]
25 | CCS(=O)(=O)N1CCC(F)(c2nc(-c3ccccc3)no2)CC1 | – | inconclusive: 50.1 µM [inhibitor, partial curve]
26 | O=C(CCC[C@H]1NC[C@@H]2C[C@H]1CN(Cc1ccccc1)C2)Nc1ccc2c(c1)OCCO2 | – | active: 44.7 µM
27 | COc1ccc(Cl)cc1C(=O)NC1CCCN(c2cc(-c3ccccc3)[nH]n2)C1 (stereo not drawn) | – | inconclusive: 39.8 µM [inhibitor, partial curve, poor fit]
28 | OC[C@@H]1CN(Cc2ccco2)C[C@H]1c1nc(-c2ccncc2)no1 | – | inconclusive: 44.7 µM [inhibitor, partial curve]
29 | Cc1cn2nnc(C(=O)NCC3CCCCC3)c2c(=O)[nH]1 | inactive: -7.02% | –
30 | COc1c(C)cccc1-c1nc(C2CCOC2)no1 (stereo not drawn) | – | inconclusive: 79.4 µM [inhibitor, single point]
31 | COc1cccc(CNC(=O)c2ccc3c(c2)CC(=O)N3Cc2cccc(F)c2)c1OC | – | inconclusive: 44.7 µM [inhibitor, partial curve]
32 | CN1CCCCCC(O)c2cc(C(=O)N3CCc4ccccc43)ccc21 (stereo not drawn) | – | inconclusive: 50.1 µM [inhibitor, partial curve]
33 | O[C@]12CCNC[C@H]1CN(Cc1cccc(N3CCOCC3)c1)CC2 | inactive: -8% | –
34 | COc1cc(C(=O)NC2CCCN(c3cc(-c4ccccc4)[nH]n3)C2)cc(OC)c1OC (stereo not drawn) | – | active: 35.5 µM
35 | CC(C)Oc1cccc(-c2cccc(COc3ccc4c(cnn4CC[S+](C)(=O)[O-])c3)c2)c1 | – | active: 6.31 µM
36 | Fc1ccc(Nc2nc(-c3ccccc3F)no2)cc1 | – | active: 2.82 µM
37 | CCCc1ccc2oc(C(=O)N(C)Cc3snnc3C)c(C)c2c1 | – | inconclusive: 79.4 µM [inhibitor, single point]
38 | O=C(c1cccc(Cn2cccn2)c1)N1CCOC(c2ccc(Cl)cc2)C1 (stereo not drawn) | inactive: 0.129% | –
39 | COc1ccc(-c2cc(-c3cccc(NC(C)=O)c3)cn3cncc23)cc1 | – | inconclusive: 89.1 µM [inhibitor, partial curve, poor fit]
40 | COc1ccc(-c2cc3c(ccn3C)c(C(=O)NCCC(N)=O)n2)cc1OC | – | inconclusive: 50.1 µM [inhibitor, partial curve]
41 | COc1ccc(CNC(=O)c2ccc(Cn3ccn4nc5c(c4c3=O)CCCC5)cc2)cc1OC | inactive: -9.07% | –
42 | Cc1cn2nc(C(=O)Nc3ccc4c(c3)OCO4)cc2c(N(C)Cc2ccccc2)n1 | – | inconclusive: 39.8 µM [inhibitor, partial curve]
43 | CS(=O)(=O)NC[C@H]1Cn2c(-c3ccc(F)cc3)cnc2CO1 | – | inconclusive: 126 µM [inhibitor, single point]
44 | Cn1ccnc1CN1CCNc2cc(Nc3ccccc3)ncc2C1 | – | active: 4.47 µM
45 | CN1[C@@H](CCC(=O)NCc2cccs2)CNC(=O)[C@@H]2[C@H]1CCN2Cc1ccccc1 | inactive: 1.99% [at 172 µM] | –
46 | COc1ccc(NC(=O)N2CCCC(Cn3cnc4cccnc43)C2)c(OC)c1 (stereo not drawn) | inactive: 0.0508% | –

Row | Compound | activity change, negative = inhibition | Potency
47 | Clc1ccc(CNc2nc(-c3ccccc3)no2)cc1 | – | active: 15.8 µM
48 | Cc1cnc2c(C(=O)NCc3cccnc3Oc3ccccc3)cnn2c1 | – | inconclusive: 17.8 µM [inhibitor, full curve]
49 | CCOC(=O)CN1CCN(C(=O)CCc2cc3cc(OC)ccc3[nH]c2=O)CC1 | inactive: -8.57% | –
50 | COCCOC1CCN(C(=O)COc2ccc(C)cc2)CC1 | – | inconclusive: 56.2 µM [inhibitor, partial curve, poor fit]
51 | O=C(Nc1ccc2c(c1)OCCO2)N1CCC2(CC1)CC(N1CCCC1)CCO2 (stereo not drawn) | – | active: 6.31 µM
52 | COc1ccc2nc([C@H]3CCN(Cc4cccc(OC(F)(F)F)c4)C3)[nH]c2c1 | – | inconclusive: 63.1 µM [inhibitor, partial curve]
53 | Cc1ncsc1CN1CC[C@H]2C(=O)NCCCCCCN(Cc3ccncc3)[C@@H]2C1 | inactive: 1.32% | –
54 | O=C(Nc1ccccc1)N[C@H]1CO[C@H]2[C@@H]1OC[C@H]2OC(=O)Nc1ccccc1 | – | active: 44.7 µM
55 | O=C(Cc1c[nH]c2ncc(-c3cccc(OC(F)(F)F)c3)cc12)NCc1cccnc1 | – | inconclusive: 126 µM [inhibitor, single point]
56 | O=C(NCCCN1CCCC1)c1ccc(-c2ccc(N3CCCCC3)nc2)cc1 | – | inconclusive: 44.7 µM [inhibitor, partial curve]
57 | c1ccc(CCCN2CC[C@H](c3nc4ccccc4[nH]3)C2)cc1 | – | inconclusive: 70.8 µM [inhibitor, partial curve]
58 | Cn1nc(-c2nncn2CC2CC2)c2c1CCN(C(=O)c1cn[nH]c1-c1ccccc1)C2 | – | inconclusive: 100 µM [inhibitor, single point]
59 | CN(C)[C@H]1C[C@@H](Cc2cc(COc3ccccc3)on2)C1(C)C | – | inconclusive: 112 µM [inhibitor, partial curve, poor fit]
60 | COc1ccc(S(=O)(=O)N2CCc3c(C(=O)NCCN(C)C)cccc32)cc1 | – | inconclusive: 89.1 µM [inhibitor, single point]
61 | c1ccc(-c2cnc(Nc3ccc(N4CCOCC4)cc3)c3c2CCO3)nc1 | – | inconclusive: 3.98 µM [inhibitor, full curve]
62 | CCOc1ccccc1C1NC(=O)N(CC(=O)Nc2ccc(C)c(Cl)c2)C2=C1C(=O)OC2 (stereo not drawn) | – | inconclusive: 28.2 µM [inhibitor, partial curve]
63 | O=C(CC1CCCCC1)NCc1nnc2c(-c3nc(C4CC4)no3)cccn12 | inactive: -7.91% | –
64 | COc1ccc(CC2CN(C(=O)c3cccnc3SC)CCO2)cc1 (stereo not drawn) | – | inconclusive: 56.2 µM [inhibitor, partial curve]
65 | O=C(Nc1ccc2c(c1)OCCO2)C1CC(=O)N(c2n[nH]c3ccccc23)C1 (stereo not drawn) | – | inconclusive: 39.8 µM [inhibitor, partial curve, poor fit]
66 | COc1ccc(OC)c(NC(=O)Nc2cccc(-c3ccc(N4CCCCC4)nn3)c2)c1 | – | active: 0.251 µM
67 | O=C(NCc1ccccc1Cl)C1CCN(C(=O)c2ncn3c2COC(c2ccc(F)cc2)C3)CC1 (stereo not drawn) | – | inconclusive: 50.1 µM [inhibitor, partial curve]
68 | O=C(O)CCn1ncc2cc(OCC3CCN(C(=O)CC4CC4)CC3)ccc21 | – | inconclusive: 100 µM [inhibitor, partial curve, poor fit]
